PubChem BioAssay AID743279 (National Center for Advancing Translational Sciences (NCATS), 2014)
About 17,000 (4.7%) of roughly 360,000 compounds were called active. Inconclusive means that the source gave no clear call. Such entries were picked first, then a sample of the others. Rule as the data show it: active = activity change below about -50%; inconclusive = mostly about -30% to -49%; inactive = weaker than that.

experiment: qHTS for Inhibitors of Inflammasome Signaling: IL-1-beta AlphaLISA Primary Screen; details: THP-1 LPS/ATP IL-1B secretion, 16 h; at 57.5 µM, hits give low values
Outline: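 Secreted IL-1B measured by AlphaLISA bead assay after 16 h compound exposure of THP-1 cells; compounds (final up to 57.5 uM) added 1 h before LPS (250 ng/mL) and ATP (1.25 mM) stimulation; lower signal means less secretion.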
% is scaled to controls: 0 for no effect and ±100 for the full control effect.

Activity change, inconclusive:
O=S(=O)([N-]c1nc2ccccc2nc1-[n+]1ccc(CCCc2ccccc2)cc1)c1cccs1 -36.6%
Cc1ccc(C)c(N2CCN(CCCNC(=O)Cn3c(=O)c4cccn4c4cccnc43)CC2)c1 -36.3%
Cc1cc(OCC(=O)NCCN2CCOCC2)c2c(C)c(C)c(=O)oc2c1 -42.1%
Cn1cccc1C1CCCN1CC(=O)Nc1c(Cl)cc(Cl)cc1Cl (stereo not drawn) -39.5%
COCCNC(=O)c1c[nH]c2ccc(S(=O)(=O)N3CCc4ccccc43)cc2c1=O -38.9%
CCCC1=C(C(=O)OCC)C(c2ccco2)C(C#N)=C(N)O1 (stereo not drawn) -37.2%
COc1ccccc1/C=C1\SC(N2CCC(C)CC2)=NC1=O -34.4%
Cc1ccc(NC(=S)NC2CCSc3ccccc32)cc1 (stereo not drawn) -48.3%
CC(C)/C=C/C(=O)N1CCC(N2CCC(C(=O)NCC3CCCO3)CC2)CC1 (stereo not drawn) -39.9%
Cc1cc(=O)n(CC=C(Cl)Cl)c2ccccc12 -32.6%
C=C(C)C(=O)N1CC2(CC(c3cccc(NC(=O)COc4ccc(Cl)cc4)c3)=NO2)C[C@@H]1C(N)=O (stereo partly drawn) -37.1%
CC(Nc1cc(N2CCNCC2)ccc1[N+](=O)[O-])c1ccccc1 (stereo not drawn) -33.6%
OCC[C@H]1NCc2cc(CO)cc(-c3ccccc3)c21 -45%
COc1cc(/C=C/C(=O)c2ccc3c(c2)OCO3)cc(Cl)c1O -35.9%
COc1ccccc1-n1c(=O)c2c3c(sc2n2c(SC(C)C)nnc12)CCC3 -36.3%
C[C@@H]1CN([C@H](C)CO)C(=O)c2cc(NC(=O)Cc3ccccc3)ccc2O[C@H]1CN(C)Cc1ccc(Oc2ccccc2)cc1 -38.6%
CC1C(=O)N(Cc2ccc([N+](=O)[O-])cc2)c2ccccc2N1C(=O)c1c(F)cccc1F (stereo not drawn) -43.1%
O=C(Nc1ccccc1C(=O)NCc1ccco1)Nc1cccc2ccccc12 -31.2%
COc1cc(NC(=O)c2ccccc2NS(=O)(=O)c2ccc(Cl)s2)cc(OC)c1 -43.7%
COc1ccccc1Nc1ccc(C(=O)NC2CCCCC2)cn1 -41.8%
COC(=O)[C@@]12CCCN1[C@H](c1ccc(-c3ccc(Cl)c(Cl)c3)c(OC)c1)[C@H]1C(=O)N(C)C(=O)[C@H]12 -37.2%
COc1ccc(C(CC(=O)c2ccc(C)cc2)Nc2ccc([N+](=O)[O-])cc2)cc1 (stereo not drawn) -32.2%
CC(=O)Oc1ccc(N(C(C)=O)S(=O)(=O)c2ccc3ccccc3c2)cc1 -39.9%
CCN(CC(=O)Nc1c(F)cccc1F)C(=O)CNC(=O)c1sc2ccccc2c1Cl -30.7%
Fc1ccc(-n2ncc3c(SCc4cccnc4)ncnc32)cc1 -32.4%
CN(C)CCOC(C1CCCCC1)C1CCCCC1 -43.2%
O=C(Nc1ccc(-c2cccc(F)c2)cc1)C1CCCN(Cc2ccccn2)C1 (stereo not drawn) -38.2%
COc1cc(C(=O)Nc2ccc(S(=O)(=O)N(C)c3ccccc3)cc2)cc(OC)c1OC -46%
CCc1nn(CC(=O)NCCCN(C)Cc2ccccc2)c(=O)c2cc3sc(C)cc3n12 -38.2%

Activity change, inactive:
O=C(Cc1cccs1)N1CCN(S(=O)(=O)c2ccc(Br)cc2)CC1 6.55%
COc1ccc(CNC(=O)OC2CC3CC2[C@H]2CCCCN2C3=O)cc1 (stereo partly drawn) 21.1%
Cc1cc(-c2ccc(S(=O)(=O)N(C)c3ccc(C)c(C)c3)s2)on1 23.7%
O=C(OCc1cn([C@H]2C[C@H](c3ccc(Cl)cc3)N(C(=O)c3cccs3)C[C@@H]2O)nn1)c1ccccc1 10.6%
C=CCc1ccccc1OCC(O)CN1CCOCC1 (stereo not drawn) -14.1%
CC(SCc1ccccc1)C(=O)Nc1ccccc1 (stereo not drawn) 28.4%
CC(=O)c1ccc(Oc2cc(C)nc(-n3nc(C)cc3C)n2)cc1 46.7%
COc1ccc(S(=O)(=O)N(C)C[C@@H]2OCc3cnnn3CCCC(=O)N([C@H](C)CO)C[C@@H]2C)cc1 8.99%
CC1Sc2ccc(S(=O)(=O)N(C)Cc3ccccc3)cc2NC1=O (stereo not drawn) 15.6%
O=[N+]([O-])c1ccc(OCC(O)CN2CCN(c3ccccc3F)CC2)cc1 (stereo not drawn) -10.6%
Cc1ccc(C)c(NC(=O)NNC(=O)c2cc3occc3[nH]2)c1 17.1%
CC(C)[C@H](NC(=O)c1ccco1)C(=O)N(C)Cc1ccc(C(F)(F)F)cc1 18.9%
Cc1ccccc1-c1nc2c(s1)CCc1onc(-c3ccc(Cl)cc3)c1-2 6.33%
COc1cc(C(=O)Nc2ccn(C)n2)ccc1OC(F)F -21.4%
CCCCN(C(=O)CCOc1ccc(OCC)cc1)c1c(N)n(Cc2ccccc2)c(=O)[nH]c1=O -16.3%
Cc1ccc(F)c(CNC(=O)C2(C)CCCN2C(=O)C(C)C)c1F (stereo not drawn) 23.5%

Activity change, active:
CCCCCOc1ccc(CSC2=NCCN2)cc1[N+](=O)[O-] -93.2%
Cc1cccc(-n2c(SCC(=O)N3CC(=O)Nc4ccccc43)nc3ccccc3c2=O)c1C -62.4%
CCN1CCN(C(=O)c2ccc3c(Cl)c4c(nc3c2)CCCC4)CC1 -78.3%
COc1ccc(-c2[nH]nc3oc(=O)c(CCO)c(C)c23)cc1 -84.3%
CCN(CC)CCn1c2c(c(SCC(=O)Nc3cccc4ccccc34)nc1=O)CCC2 -89.6%
CCN(CC)C(=O)[C@H]1CC(CC(=O)NC/C=C(\C)CCC=C(C)C)C(=O)N2CCc3c([nH]c4ccc(OC)cc34)[C@]12C (stereo partly drawn) -77.8%
C=CCn1c(NS(=O)(=O)c2ccccc2)c(S(=O)(=O)c2ccc(C)cc2)c2nc3ccccc3nc21 -84.3%
O=C(CN1C(=O)/C(=C/c2ccccc2Cl)SC1=S)NC1C=CS(=O)(=O)C1 (stereo not drawn) -79.2%
